Measurements reported in paper PMC4729865.
These are yes or no findings as the source states them, for the method shown. In cells and extracts the contact can be indirect. Some results given as binding are weak or reduced against the parent protein; the word gives no strength. Tags and fused reporters may be left off the sequences shown.

Biological target: T1, Cep57, exogenous (tag shown only in the figures) (human) (UniProt Q86XR8)
T1 sequence: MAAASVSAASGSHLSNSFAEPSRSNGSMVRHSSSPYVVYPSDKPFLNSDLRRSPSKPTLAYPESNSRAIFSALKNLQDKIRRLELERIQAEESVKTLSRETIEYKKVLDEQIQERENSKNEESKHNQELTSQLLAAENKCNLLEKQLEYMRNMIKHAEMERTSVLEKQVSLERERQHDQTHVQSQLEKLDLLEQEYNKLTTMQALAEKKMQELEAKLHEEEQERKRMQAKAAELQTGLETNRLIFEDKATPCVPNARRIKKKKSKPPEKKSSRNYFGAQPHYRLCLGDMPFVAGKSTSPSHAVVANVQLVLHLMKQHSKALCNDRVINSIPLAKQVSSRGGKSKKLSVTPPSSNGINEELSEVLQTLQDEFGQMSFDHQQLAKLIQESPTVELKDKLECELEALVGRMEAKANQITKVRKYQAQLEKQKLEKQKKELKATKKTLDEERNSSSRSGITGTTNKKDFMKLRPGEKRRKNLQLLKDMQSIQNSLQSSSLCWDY
Experiment: co-IP; lysates of co-transfected HEK293T cells (150 mM NaCl, 1 mM MgCl2, 50 mM Hepes pH 7.4, 1 mM EGTA, 0.5% Triton X-100); antibody 4 h at 4 °C, protein A-Sepharose 2 h; western blotting

B1: Mad1, exogenous (tag shown only in the figures) (protein, UniProt Q9Y6D9 1-718)
chain: MEDLGENTMVLSTLRSLNNFISQRVEGGSGLDISTSAPGSLQMQYQQSMQLEERAEQIRSKSHLIQVEREKMQMELSHKRARVELERAASTSARNYEREVDRNQELLTRIRQLQEREAGAEEKMQEQLERNRQCQQNLDAASKRLREKEDSLAQAGETINALKGRISELQWSVMDQEMRVKRLESEKQELQEQLDLQHKKCQEANQKIQELQASQEARADHEQQIKDLEQKLSLQEQDAAIVKNMKSELVRLPRLERELKQLREESAHLREMRETNGLLQEELEGLQRKLGRQEKMQETLVGLELENERLLAKLQSWERLDQTMGLSIRTPEDLSRFVVELQQRELALKDKNSAVTSSARGLEKARQQLQEELRQVSGQLLEERKKRETHEALARRLQKRVLLLTKERDGMRAILGSYDSELTPAEYSPQLTRRMREAEDMVQKVHSHSAEMEAQLSQALEELGGQKQRADMLEMELKMLKSQSSSAEQSFLFSREEADTLRLKVEELEGERSRLEEEKRMLEAQLERRALQGDYDQSRTKVLHMSLNPTSVARQRLREDHSQLQAECERLRGLLRAMERGGTVPADLEAAAASLPSSKEVAELKKQVESAELKNQRLKEVFQTKIQEFRKACYTLTGYQIDITTENQYRLTSLYAEHPGDCLIFKATSPSGSKMQLLETEFSHTVGELIEVHLRRQDSIPAFLSSLTLELFSRQTVA
binding: binds
